Data taken from the antibiotic and cytotoxicity screens of Wong et al. (2023).
The list shows a part of the results.

Each compound was assayed on S. aureus RN4220 (assay: growth inhibition call (relative growth <= 0.2)). Conditions: 50 µM.

Growth inhibition call, inactive:
COc1ccc(CN(C)C[C@@H]2OCCCC[C@H](C)Oc3ccc(NS(=O)(=O)c4ccc(C)cc4)cc3C(=O)N([C@H](C)CO)C[C@H]2C)cc1
C[C@@H]1CN([C@@H](C)CO)C(=O)c2cc(NC(=O)Nc3cccc4ccccc34)ccc2O[C@@H](C)CCCCO[C@@H]1CN(C)S(=O)(=O)c1cn(C)cn1
CCO[C@@H]1OC(C(=O)N2CCN(Cc3ccc4c(c3)OCO4)CC2)=C[C@H](c2csc3ccccc23)[C@H]1CCCOC(=O)NCCCCCC(=O)NO
C[C@@H]1CN([C@@H](C)CO)C(=O)c2cc(NC(=O)C3CCCCC3)ccc2O[C@@H](C)CCCCO[C@H]1CN(C)C(=O)Cc1ccccc1
NCc1ccc2nsnc2c1
C[C@@H]1CN([C@@H](C)CO)C(=O)c2c(c3ccccc3n2C)-c2ccccc2CO[C@H]1CN(C)Cc1ccccc1C(F)(F)F
Cc1ccc(S(=O)(=O)N[C@H]2CC[C@@H](CC(=O)NCc3ccc(Cl)c(Cl)c3)O[C@@H]2CO)cc1
CC(=O)c1cc(Cl)c(C)cc1O
O=C(C[C@@H]1C=C[C@H](NC(=O)Nc2cc(F)ccc2F)[C@H](CO)O1)NCCCN1CCOCC1
COC(=O)c1c(C)cc(OC(=O)c2c(C)cc(O)c(CO)c2O)c(C)c1O
C[C@@H]1CN([C@H](C)CO)C(=O)c2cccc(NC(=O)c3ccncc3)c2O[C@@H]1CN(C)C(=O)Nc1ccc2c(c1)OCO2
COc1ccc(CN2C[C@H](C)[C@@H](OC)CN(C)C(=O)c3ccc(NC(=O)c4nc5ccccc5s4)cc3OC[C@H]2C)cc1
